Laboratory results taken from the BET-seq Pho4 binding data (Le et al. 2018).
The list shows a part of the results. The energies were worked out here from pooled read counts, against the library average; single values are noisy.

Each sequence was assayed against T1, Pho4 (S. cerevisiae) (UniProt P07270) (assay: relative binding free energy (BET-seq); higher = weaker binding). Conditions: reference: library average.
T1 sequence: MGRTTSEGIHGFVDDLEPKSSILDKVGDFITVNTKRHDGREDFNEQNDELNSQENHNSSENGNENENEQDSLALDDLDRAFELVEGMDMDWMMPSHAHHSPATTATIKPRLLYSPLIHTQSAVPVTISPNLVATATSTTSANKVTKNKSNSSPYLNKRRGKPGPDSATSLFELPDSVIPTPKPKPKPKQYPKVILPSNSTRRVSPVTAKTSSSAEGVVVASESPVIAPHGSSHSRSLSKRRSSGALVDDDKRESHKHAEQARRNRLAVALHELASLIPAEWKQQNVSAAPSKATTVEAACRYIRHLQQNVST

Row | Sequence | relative binding free energy [kcal/mol]
1 | ACGTTCACGTGAGGTA | 0.23
2 | AAATTCACGTGGGATA | 0.33
3 | ATCGGCACGTGGAGAG | -0.15
4 | TGGGTCACGTGAGCGG | 0.29
5 | GTCGTCACGTGATTGG | 0.32
6 | CTTCTCACGTGTGTTT | 0.17
7 | GTACTCACGTGAGTGG | 0.23
8 | TTTGTCACGTGGTAGA | 0.13
9 | AGGACCACGTGATGGG | 0.01
10 | TAACTCACGTGTAGGG | 0.15
11 | TTCCTCACGTGTTGGT | 0.24
12 | AATGTCACGTGCGTGG | -0.06
13 | TGGAACACGTGGTTTA | -0.12
14 | CGTGACACGTGGCGGT | -0.25
15 | ATTGTCACGTGAGCAT | 0.11
16 | GCGGGCACGTGGTGAA | -0.1
17 | GTCGGCACGTGTGCTA | 0.15
18 | GGCTGCACGTGTAGCG | 0.05
19 | GTAATCACGTGACGTG | 0.3
20 | GTCGCCACGTGTATGG | 0.05
21 | TTTTACACGTGCTTGG | 0.1
22 | GGCTCCACGTGTGTGT | 0.01
23 | TTAATCACGTGGTTAG | 0.22
24 | ACAATCACGTGGGATT | 0.14
25 | ATAGTCACGTGGGCAG | -0.18

Row | Sequence | relative binding free energy [kcal/mol]
26 | ATTGTCACGTGTAGGA | -0.01
27 | GTGTCCACGTGGTTCA | 0.12
28 | TGCGCCACGTGGGGCT | -0.24
29 | TGTTTCACGTGTTCGC | 0.35
30 | AGCGGCACGTGGATTG | -0.05
31 | TGGTACACGTGGGTAG | -0.07
32 | AAATTCACGTGGTGTT | 0.36
33 | TGTGGCACGTGGTTCA | -0.1
34 | TGTGGCACGTGCTCGG | -0.25
35 | TACGGCACGTGGGGTC | -0.14
36 | GTTTTCACGTGCGGGG | 0.32
37 | AGGTTCACGTGTGTTT | 0.27
38 | TGTTACACGTGGCTTG | -0.11
39 | GGTTTCACGTGTCTTC | 0.46
40 | GTTTACACGTGCGTCG | 0.09
41 | CGGAACACGTGTGTGT | -0.05
42 | ATTTTCACGTGAGACT | 0.53
43 | GGTCGCACGTGATTGA | 0.18
44 | TATTTCACGTGTCGTC | 0.23
45 | GTTTACACGTGGGGTT | 0.01
46 | AGTTACACGTGAAAGG | 0.34
47 | GCATACACGTGGTTGG | -0.03
48 | AGTTGCACGTGGGAGG | -0.07
49 | TTAAACACGTGTGATA | 0.07
50 | GTTCACACGTGAGGAT | 0.5

Row | Sequence | relative binding free energy [kcal/mol]
51 | TAGTACACGTGTAGTC | 0.15
52 | GTCAACACGTGGGGAA | -0.04
53 | GAGGGCACGTGGATAG | -0.12
54 | TTGGGCACGTGAGAGA | 0.17
55 | ATATACACGTGATGTT | 0.04
56 | AGAAGCACGTGGGTTA | -0.07
57 | ATAAGCACGTGTTTTT | -0.04
58 | GGTGTCACGTGAGGCG | 0.29
59 | GGAGGCACGTGGGGAT | -0.15
60 | GTGTTCACGTGTTTAC | 0.31
61 | CATGGCACGTGATATG | -0.04
62 | AGTAGCACGTGGGGAG | -0.25
63 | TGGGTCACGTGGACAG | 0.05
64 | AAGGACACGTGCGGGG | -0.08
65 | TCTATCACGTGTGCGT | 0.21
66 | GGTTACACGTGGTCAT | -0.03
67 | GTGATCACGTGACGGT | 0.3
68 | TCAGGCACGTGCGGTG | -0.26
69 | GTTTTCACGTGGTCCG | 0.28
70 | TTTATCACGTGCACGT | 0.14
71 | TAGGTCACGTGATGAA | 0.28
72 | GGGCTCACGTGGCAGT | 0.38
73 | TCGGACACGTGTTTTG | -0.03
